Out of some 39,000 compounds screened, about 220 (0.56%) showed activity. Some of the results follow.
Tested on: Escherichia coli K-12 BW25113
Assay: relative growth (OD600 normalised to plate interquartile mean) (fraction); higher = less growth inhibition, active = 0.2 or less
Details: 50 µM; LB; incubation time: overnight (16-24 h)
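Further: static incubation at 37 °C against the wild-type strain, values averaged over two biological replicates.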

Compound	relative growth
C[C@@H](Sc1nc2ncnc(N)c2[nH]1)C(=O)O	inactive: 0.932
CCOC(=O)C(=O)N(C)CC(OC)OC	inactive: 1
Cc1noc(C)c1NC(=O)Nc1ccc2c(c1)CC(=O)N([C@H](C)CO)C[C@@H](C)[C@@H](CN(C)CC1CC1)O2	inactive: 0.982
O=C(C[C@H]1C=C[C@H](NC(=O)Nc2cc(F)ccc2F)[C@H](CO)O1)NCCCN1CCOCC1	inactive: 0.99
CC(C)NC(=O)Nc1ccc2c(c1)C(=O)N([C@@H](C)CO)C[C@@H](C)[C@@H](CN(C)C(=O)Nc1ccc(C(F)(F)F)cc1)OCCCC[C@H](C)O2	inactive: 1.01
COc1cccc(C#Cc2ccc3c(c2)O[C@H](CN(C)S(=O)(=O)c2ccccc2F)[C@H](C)CN([C@@H](C)CO)S3(=O)=O)c1	inactive: 1.03
COc1c2ccoc2nc2c(OC)c(OCC(O)C(C)(C)O)ccc12 (centres undefined)	inactive: 1.02
C[C@@H]1CN([C@H](C)CO)C(=O)c2cc(NC(=O)c3ccncc3)ccc2O[C@@H]1CN(C)S(=O)(=O)c1ccc(F)cc1	inactive: 0.985
Cc1noc(C)c1NC(=O)N(C)C[C@@H]1OCCCC[C@@H](C)Oc2ccc(NS(=O)(=O)c3ccc(F)cc3)cc2C(=O)N([C@H](C)CO)C[C@@H]1C	inactive: 1.02
COc1ccc(-c2cnc3c(c2)C(=O)N([C@H](C)CO)C[C@H](C)[C@H](CN(C)S(=O)(=O)c2ccc(C#N)cc2)O3)cc1	inactive: 0.977
C[C@@H]1CN([C@@H](C)CO)C(=O)Cc2cc(NC(=O)Cn3cnnn3)ccc2O[C@@H]1CN(C)C(=O)Nc1cccc2ccccc12	inactive: 0.993
Cn1cnc(S(=O)(=O)N[C@H]2C=C[C@@H](CC(=O)N3CCN(c4ccccc4)CC3)O[C@@H]2CO)c1	inactive: 1
CC(C)NC(=O)N[C@@H]1C=C[C@H](CC(=O)O)O[C@H]1CO	inactive: 0.989
O=C(NCCc1ccccc1)c1nnc[nH]1	inactive: 0.987
COCC(=O)Nc1ccc2c(c1)OC[C@H](C)N(C(=O)c1ccccc1F)C[C@@H](C)[C@@H](OC)CN(C)C2=O	inactive: 1
O=C(CCCCCNC(=O)OCc1ccc(CO[C@H]2C[C@@H](c3ccc(C(F)(F)F)cc3)C=C(C(=O)N3CCN(Cc4ccccc4)CC3)O2)cc1)NO	inactive: 0.983
Cc1ccc(S(=O)(=O)Nc2ccc3c(c2)CC(=O)N([C@H](C)CO)C[C@H](C)[C@@H](CN(C)C(=O)Nc2ccc(C(F)(F)F)cc2)O3)cc1	inactive: 0.993
C[C@@H]1CN([C@H](C)CO)C(=O)c2cc(NC(=O)C3CCCCC3)ccc2O[C@H]1CN(C)C(=O)Nc1ccc(C(F)(F)F)cc1	inactive: 0.987
C[C@@H]1CN([C@H](C)CO)C(=O)c2cc(NS(=O)(=O)c3cccs3)ccc2O[C@@H]1CN(C)S(=O)(=O)c1ccccc1	inactive: 0.985
CC(C)NC(=O)Nc1ccc2c(c1)C(=O)N([C@@H](C)CO)C[C@@H](C)[C@H](CN(C)C(=O)Nc1ccc3c(c1)OCO3)O2	inactive: 0.995

Compound	relative growth
C[C@@H]1CCCCO[C@@H](CN(C)C(=O)c2ccccc2)[C@@H](C)CN([C@H](C)CO)C(=O)c2cc(NC(=O)Nc3cccc4ccccc34)ccc2O1	inactive: 1.01
C[C@H]1CN([C@@H](C)CO)C(=O)c2cc(NC(=O)Cn3cnnn3)ccc2O[C@H]1CN(C)C(=O)Nc1cccc2ccccc12	inactive: 0.992
COc1ccc(NC(=O)Nc2cccc3c2O[C@H](CN(C)S(C)(=O)=O)[C@H](C)CN([C@H](C)CO)C3=O)cc1	inactive: 1.03
COc1cc([C@@H](O)CO)ccc1OS(=O)(=O)O	inactive: 1.02
COc1ccc(CN(C)C[C@H]2OCCCC[C@H](C)Oc3ccc(NC(=O)Nc4ccc(F)cc4)cc3C(=O)N([C@@H](C)CO)C[C@@H]2C)cc1	inactive: 0.99
CC(C)NC(=O)N(C)C[C@@H]1Oc2c(NS(=O)(=O)c3cccs3)cccc2C(=O)N([C@H](C)CO)C[C@@H]1C	inactive: 0.971
C[C@@H]1CN([C@H](C)CO)C(=O)c2cc(NS(=O)(=O)c3ccccc3)ccc2O[C@@H](C)CCCCO[C@@H]1CN(C)Cc1ccc2c(c1)OCO2	inactive: 0.997
Cc1noc(C)c1S(=O)(=O)Nc1ccc2c(c1)C(=O)N([C@H](C)CO)C[C@@H](C)[C@H](CN(C)Cc1ccc(-c3ccccc3)cc1)O2	inactive: 0.957
O=C(C[C@H]1CC[C@H]2[C@@H](COC[C@@H](O)CN2S(=O)(=O)c2cccc(Cl)c2)O1)NCc1ccc2c(c1)OCO2	inactive: 1
CO[C@@H]1CN(C)C(=O)c2ccc(NC(=O)Nc3ccc(Cl)cc3)cc2OC[C@@H](C)N(C(=O)Nc2c(C)noc2C)C[C@H]1C	inactive: 0.954
C[C@H]1CN([C@@H](C)CO)C(=O)c2cc(NC(=O)CCN3CCOCC3)ccc2O[C@H]1CN(C)S(C)(=O)=O	inactive: 0.992
C[C@H](CO)N1C[C@H](C)[C@H](CN(C)C(=O)Nc2ccc(C(F)(F)F)cc2)Oc2ncc(C#C[C@@H](C)O)cc2C1=O	inactive: 0.997
CC(C)C#Cc1ccc2c(c1)O[C@@H](CN(C)C(=O)Cc1ccccn1)[C@@H](C)CN([C@H](C)CO)S2(=O)=O	inactive: 1.01
CC(C)NC(=O)Nc1ccc2c(c1)C(=O)N([C@H](C)CO)C[C@H](C)[C@@H](CN(C)S(=O)(=O)c1cccs1)O2	inactive: 1
Cc1ccc(S(=O)(=O)Nc2ccc3c(c2)C(=O)N([C@H](C)CO)C[C@H](C)[C@@H](CN(C)Cc2ccccc2)OCCCC[C@@H](C)O3)cc1	inactive: 0.973
C[C@H]1CN([C@@H](C)CO)S(=O)(=O)c2ccc(C#Cc3ccccc3F)cc2O[C@@H]1CN(C)C(=O)Cc1cccnc1	inactive: 0.981
Cc1ccc(OCCn2c(CC(C)(C)C)nc3ccccc32)cc1	inactive: 0.916
Cc1noc(C)c1S(=O)(=O)N(C)C[C@H]1Oc2ccc(NS(=O)(=O)c3ccccc3)cc2CC(=O)N([C@@H](C)CO)C[C@@H]1C	inactive: 0.981
C[C@H]1CN([C@@H](C)CO)C(=O)c2cccc(NC(=O)c3cnccn3)c2O[C@@H]1CN(C)C(=O)Nc1ccccc1	inactive: 0.986

From the supplement of paper PMC9446081
